This passage reports binding signal results from PMC12820563, “FoxP3 forms a head-to-head dimer in vivo and stabilizes its multimerization on adjacent microsatellites”.

The list shows a part of the results.

For this assay, the target named is T1, MBP-FoxP1dN (Mus musculus, UniProt P58462 326-579).
T1 sequence: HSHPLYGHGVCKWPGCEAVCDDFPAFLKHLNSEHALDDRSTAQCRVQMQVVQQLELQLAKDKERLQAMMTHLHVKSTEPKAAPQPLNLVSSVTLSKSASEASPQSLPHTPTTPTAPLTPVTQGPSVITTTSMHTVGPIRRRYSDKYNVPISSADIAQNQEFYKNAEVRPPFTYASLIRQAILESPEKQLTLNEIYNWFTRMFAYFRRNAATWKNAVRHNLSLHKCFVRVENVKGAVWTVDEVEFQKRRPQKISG
Briefly: PD-seq (MBP pull-down with sequencing); 20 mM Tris-HCl pH 7.5, 100 mM NaCl, 1.5 mM MgCl2, 0.4 uM protein, 0.1 uM dsDNA library, 30 min, room temperature, amylose pull-down; high values mean tight binding. The note with it: protein: recombinant; tags: His6-MBP; chain copies: 2; dsDNA, one strand shown. Put shortly: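 Binding is the reads-per-million enrichment of pull-down relative to input, pooled across replicates. For this, 0.4 µM His6-MBP-tagged mouse FoxP3 or FoxP1 fragment lacking the N-terminus, made in E. coli, was incubated with 0.1 µM Klenow-filled double-stranded degenerate DNA library for 30 min at room temperature in Tris pH 7.5 buffer with NaCl and MgCl2. Complexes bound to amylose resin were washed three times before proteinase K released the DNA for PCR barcoding and Illumina sequencing.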
Regarding “GATGATTGTTCTCCCAGCTGATGAATTTAAACCCTCGAGTAAACAAATTTTCCTAATCTTTCTGTTCAAGCGCCATCTAC”, the binding signal was 0.825 RPM ratio (pull-down/input). For “GATGATTGTTCTCCCAGCTGATGAATTTCAGTTTTCGAGTAAACAAATTTTCCTAATCTTTCTGTTCAAGCGCCATCTAC”, the binding signal is 1.07 RPM ratio (pull-down/input). On to “GATGATTGTTCTCCCAGCTGATGAATTCCACCCGTCGAGTAAACAAATTTTCCTAATCTTTCTGTTCAAGCGCCATCTAC”, for which the binding signal was 0.829 RPM ratio (pull-down/input). The figure for “GATGATTGTTCTCCCAGCTGATGAATTACTATCCTCGAGTAAACAAATTTTCCTAATCTTTCTGTTCAAGCGCCATCTAC” is 0.923 RPM ratio (pull-down/input); for “GATGATTGTTCTCCCAGCTGATGAATTTCCGAACTCGAGTAAACAAATTTTCCTAATCTTTCTGTTCAAGCGCCATCTAC” it is 0.879 RPM ratio (pull-down/input); for “GATGATTGTTCTCCCAGCTGATGAATTTTCAATGTCGAGTAAACAAATTTTCCTAATCTTTCTGTTCAAGCGCCATCTAC” it is 0.925 RPM ratio (pull-down/input).

On to “GATGATTGTTCTCCCAGCTGATGAATTCTTCTCTTCGAGTAAACAAATTTTCCTAATCTTTCTGTTCAAGCGCCATCTAC”, for which the binding signal is 0.888 RPM ratio (pull-down/input). The figure for “GATGATTGTTCTCCCAGCTGATGAATTCAAGTGATCGAGTAAACAAATTTTCCTAATCTTTCTGTTCAAGCGCCATCTAC” is 0.934 RPM ratio (pull-down/input); for “GATGATTGTTCTCCCAGCTGATGAATTAGCGCATTCGAGTAAACAAATTTTCCTAATCTTTCTGTTCAAGCGCCATCTAC” it is 1.37 RPM ratio (pull-down/input). Next, “GATGATTGTTCTCCCAGCTGATGAATTGTATTTGTCGAGTAAACAAATTTTCCTAATCTTTCTGTTCAAGCGCCATCTAC”: 2.5 RPM ratio (pull-down/input); “GATGATTGTTCTCCCAGCTGATGAATTGGGGTGGTCGAGTAAACAAATTTTCCTAATCTTTCTGTTCAAGCGCCATCTAC”: 0.85 RPM ratio (pull-down/input); “GATGATTGTTCTCCCAGCTGATGAATTCATGTATTCGAGTAAACAAATTTTCCTAATCTTTCTGTTCAAGCGCCATCTAC”: 1.28 RPM ratio (pull-down/input). The figure for “GATGATTGTTCTCCCAGCTGATGAATTGACTGCTTCGAGTAAACAAATTTTCCTAATCTTTCTGTTCAAGCGCCATCTAC” is 1.05 RPM ratio (pull-down/input); for “GATGATTGTTCTCCCAGCTGATGAATTGTCAGACTCGAGTAAACAAATTTTCCTAATCTTTCTGTTCAAGCGCCATCTAC” it is 0.925 RPM ratio (pull-down/input). As to “GATGATTGTTCTCCCAGCTGATGAATTGTGTCGGTCGAGTAAACAAATTTTCCTAATCTTTCTGTTCAAGCGCCATCTAC”, the binding signal was 0.976 RPM ratio (pull-down/input). For the sequence “GATGATTGTTCTCCCAGCTGATGAATTCGGGTGGTCGAGTAAACAAATTTTCCTAATCTTTCTGTTCAAGCGCCATCTAC”, the binding signal was 0.785 RPM ratio (pull-down/input). Next, “GATGATTGTTCTCCCAGCTGATGAATTTTCGACTTCGAGTAAACAAATTTTCCTAATCTTTCTGTTCAAGCGCCATCTAC”: 0.87 RPM ratio (pull-down/input). Next, “GATGATTGTTCTCCCAGCTGATGAATTTCGCTGGTCGAGTAAACAAATTTTCCTAATCTTTCTGTTCAAGCGCCATCTAC”: 0.825 RPM ratio (pull-down/input); “GATGATTGTTCTCCCAGCTGATGAATTTAGGGACTCGAGTAAACAAATTTTCCTAATCTTTCTGTTCAAGCGCCATCTAC”: 0.828 RPM ratio (pull-down/input).

“GATGATTGTTCTCCCAGCTGATGAATTTCTCCGGTCGAGTAAACAAATTTTCCTAATCTTTCTGTTCAAGCGCCATCTAC”: the binding signal is 0.79 RPM ratio (pull-down/input). The figure for “GATGATTGTTCTCCCAGCTGATGAATTGAGGACGTCGAGTAAACAAATTTTCCTAATCTTTCTGTTCAAGCGCCATCTAC” is 0.767 RPM ratio (pull-down/input); for “GATGATTGTTCTCCCAGCTGATGAATTTACCCGCTCGAGTAAACAAATTTTCCTAATCTTTCTGTTCAAGCGCCATCTAC” it is 0.976 RPM ratio (pull-down/input); for “GATGATTGTTCTCCCAGCTGATGAATTTCGAGGATCGAGTAAACAAATTTTCCTAATCTTTCTGTTCAAGCGCCATCTAC” it is 0.815 RPM ratio (pull-down/input). As for “GATGATTGTTCTCCCAGCTGATGAATTGACGATTTCGAGTAAACAAATTTTCCTAATCTTTCTGTTCAAGCGCCATCTAC”, the binding signal is 1.11 RPM ratio (pull-down/input).

Turning to “GATGATTGTTCTCCCAGCTGATGAATTACGGAAATCGAGTAAACAAATTTTCCTAATCTTTCTGTTCAAGCGCCATCTAC”, the binding signal is 1.15 RPM ratio (pull-down/input). Next, “GATGATTGTTCTCCCAGCTGATGAATTACCGCACTCGAGTAAACAAATTTTCCTAATCTTTCTGTTCAAGCGCCATCTAC”: 0.939 RPM ratio (pull-down/input); “GATGATTGTTCTCCCAGCTGATGAATTGAATTGATCGAGTAAACAAATTTTCCTAATCTTTCTGTTCAAGCGCCATCTAC”: 0.941 RPM ratio (pull-down/input); “GATGATTGTTCTCCCAGCTGATGAATTGCGATAATCGAGTAAACAAATTTTCCTAATCTTTCTGTTCAAGCGCCATCTAC”: 1.43 RPM ratio (pull-down/input).

As for “GATGATTGTTCTCCCAGCTGATGAATTATATATGTCGAGTAAACAAATTTTCCTAATCTTTCTGTTCAAGCGCCATCTAC”, the binding signal is 1.12 RPM ratio (pull-down/input). The figure for “GATGATTGTTCTCCCAGCTGATGAATTTTGTGGATCGAGTAAACAAATTTTCCTAATCTTTCTGTTCAAGCGCCATCTAC” is 1.13 RPM ratio (pull-down/input); for “GATGATTGTTCTCCCAGCTGATGAATTCCGAGACTCGAGTAAACAAATTTTCCTAATCTTTCTGTTCAAGCGCCATCTAC” it is 0.759 RPM ratio (pull-down/input). The figure for “GATGATTGTTCTCCCAGCTGATGAATTCCTAGAATCGAGTAAACAAATTTTCCTAATCTTTCTGTTCAAGCGCCATCTAC” is 0.911 RPM ratio (pull-down/input).

As for “GATGATTGTTCTCCCAGCTGATGAATTCGTTGGGTCGAGTAAACAAATTTTCCTAATCTTTCTGTTCAAGCGCCATCTAC”, the binding signal was 0.781 RPM ratio (pull-down/input).

Turning to “GATGATTGTTCTCCCAGCTGATGAATTCCAGCACTCGAGTAAACAAATTTTCCTAATCTTTCTGTTCAAGCGCCATCTAC”, the binding signal was 0.792 RPM ratio (pull-down/input).

As to “GATGATTGTTCTCCCAGCTGATGAATTTTAGTCATCGAGTAAACAAATTTTCCTAATCTTTCTGTTCAAGCGCCATCTAC”, the binding signal is 1.07 RPM ratio (pull-down/input). The figure for “GATGATTGTTCTCCCAGCTGATGAATTGATACCTTCGAGTAAACAAATTTTCCTAATCTTTCTGTTCAAGCGCCATCTAC” is 1.09 RPM ratio (pull-down/input); for “GATGATTGTTCTCCCAGCTGATGAATTAGTATAGTCGAGTAAACAAATTTTCCTAATCTTTCTGTTCAAGCGCCATCTAC” it is 1.03 RPM ratio (pull-down/input). The figure for “GATGATTGTTCTCCCAGCTGATGAATTTTGATAATCGAGTAAACAAATTTTCCTAATCTTTCTGTTCAAGCGCCATCTAC” is 1.33 RPM ratio (pull-down/input); for “GATGATTGTTCTCCCAGCTGATGAATTCCTCCGTTCGAGTAAACAAATTTTCCTAATCTTTCTGTTCAAGCGCCATCTAC” it is 0.836 RPM ratio (pull-down/input); for “GATGATTGTTCTCCCAGCTGATGAATTAGCCATTTCGAGTAAACAAATTTTCCTAATCTTTCTGTTCAAGCGCCATCTAC” it is 0.97 RPM ratio (pull-down/input).
